The values below come from US6800434B2, “Peptides as NS3-serine protease inhibitors of hepatitis C virus” (priority 2000, dated 2004).

Molecules are shown by their SMILES. Starred links: 1 amine or outer side, 2 acyl side, 3 side chain; linkers in the order of their positions; H or OH if unused. Non-standard residues stand in square brackets, D forms with d. Residues, ends and D or L forms follow the SMILES beside them. *: point of attachment. Pro(4R-Bn) = O=C(O)[C@@H]1C[C@@H](Cc2ccccc2)CN1; X11 = CC(C)(C)OC(=O)N1CCN([*:1])C(C(=O)[*:2])C1; Oic = O=C(O)[C@@H]1C[C@@H]2CCCC[C@@H]2N1; Ala(SO2Me) = CS(=O)(=O)C[C@H](N)C(=O)O; X25 = C=CC[C@H](N[*:1])C(=O)C(=O)[*:2]; Met(O2) = CS(=O)(=O)CC[C@H](N)C(=O)O; X1 = CCC[C@H](N[*:1])C(=O)C(=O)[*:2]; Hyp = O=C(O)[C@@H]1C[C@@H](O)CN1; X3 = CCCC(N[*:1])C(=O)C(=O)[*:2]; Cha = N[CH](CC1CCCCC1)C(=O)O; Chg = N[CH](C(=O)O)C1CCCCC1; Carboxymethyl = O=C(O)C*; OtBu = CC(C)(C)O*; NHiPr = CC(C)N*; Sar = CNCC(=O)O; OAll = C=CCO*

The assay has as its target Recombinant heterodimeric HCV NS3/NS4A protease (strain 1a) (Hepatitis C virus genotype 1a, UniProt P27958). Kind of assay: biochemical. The note with it: Ki* Range.
One may read the Ki as the dissociation constant of the complex between target and ligand, obtained from inhibition or displacement. Turning to `CCC[C@H](NC(=O)[C@@H]1CCCN1C(=O)[C@@H](NC(=O)[C@@H](NC(=O)[C@H](CCC(=O)O)NC(=O)[C@H](CCC(=O)O)NC(C)=O)C(C)C)C(C)C)C(=O)C(=O)NC(C)C` [Ac-EEVVP-nV-(CO)-iPrAm] (Ac-EEVVP[X1]-NHiPr), the Ki is 1000 to 10000 nM.
Next, `CCC[C@H](NC(=O)[C@H](CCS(C)(=O)=O)NC(=O)[C@@H](NC(=O)[C@@H](NC(=O)[C@H](CCC(=O)O)NC(=O)[C@H](CCC(=O)O)NC(C)=O)C(C)C)C(C)C)C(=O)C(=O)NCC(=O)O` [Ac-EEVV-M(O2)-nV-(CO)-G-OH] (Ac-EEVV[Met(O2)][X1]G-OH): 101 to 999 nM; `CCC[C@H](NC(=O)[C@@H]1C[C@@H](OCC(=O)O)CN1C(=O)[C@@H](NC(=O)[C@@H](NC(=O)[C@H](CCC(=O)O)NC(=O)[C@H](CCC(=O)O)NC(C)=O)C(C)C)C(C)C)C(=O)C(=O)NCC(=O)O` [Ac-EEVV-P(4t-O-2AcOH)-nV-(CO)-G-OH] (Ac-EEVV[Hyp](Carboxymethyl)[X1]G-OH): 1 to 100 nM.
On to `CCC[C@H](NC(=O)CN(C)C(=O)[C@@H](NC(=O)[C@@H](NC(=O)[C@H](CCC(=O)O)NC(=O)[C@H](CCC(=O)O)NC(C)=O)C(C)C)C(C)C)C(=O)C(=O)NCC(=O)O` [Ac-EEVV-Sar-nV-(CO)-G-OH] (Ac-EEVV[Sar][X1]G-OH), for which the Ki was in the range of 101 to 999 nM.
`CCC[C@H](NC(=O)[C@H](CS(C)(=O)=O)NC(=O)[C@@H](NC(=O)[C@@H](NC(=O)[C@H](CCC(=O)O)NC(=O)[C@H](CCC(=O)O)NC(C)=O)C(C)C)C(C)C)C(=O)C(=O)NCC(=O)O` [Ac-EEVV-C(O2,Me)-nV-(CO)-G-OH] (Ac-EEVV[Ala(SO2Me)][X1]G-OH): the Ki was in the range of 1 to 100 nM.
To `CCCC(NC(=O)C(CC1CCCCC1)NC(=O)C(NC(=O)C(NC(=O)C(CCC(=O)O)NC(=O)C(CCC(=O)O)NC(C)=O)C(C)C)C1CCCCC1)C(=O)C(=O)NCC(=O)O` (stereo not drawn) [Compound 82] (Ac-EEV[Chg][Cha][X3]G-OH; configuration not given here) belongs 1 to 100 nM.
In the case of `C=CCOC(=O)CNC(=O)C(=O)C(CCC)NC(=O)[C@@H]1CCCN1C(=O)[C@@H](NC(=O)[C@@H](NC(=O)[C@H](CCC(=O)O)NC(=O)[C@H](CCC(=O)O)NC(C)=O)C(C)C)C1CCCCC1` (stereo partly drawn) [Compound 55] (Ac-EEV[Chg]P[X3]G-OAll), the Ki is 1 to 100 nM.
To `C=CCOC(=O)CNC(=O)C(=O)[C@H](CC=C)NC(=O)[C@@H]1CCCN1C(=O)[C@@H](NC(=O)[C@@H](NC(=O)[C@H](CCC(=O)O)NC(=O)[C@H](CCC(=O)O)NC(C)=O)C(C)C)C(C)C` [Ac-EEVVP-G(allyl)-(CO)-G-Oallyl] (Ac-EEVVP[X25]G-OAll) belongs 101 to 999 nM; to `CCCC(NC(=O)C1CN(C(=O)OC(C)(C)C)CCN1C(=O)[C@@H](NC(=O)[C@@H](NC(=O)[C@H](CCC(=O)OC(C)(C)C)NC(=O)[C@H](CCC(=O)OC(C)(C)C)NC(C)=O)C(C)C)C(C)C)C(=O)C(=O)NCC(=O)O` (stereo partly drawn) [Compound 34] (Ac-E(OtBu)E(OtBu)VV[X11][X3]G-OH), 1000 to 10000 nM; to `CCC[C@H](NC(=O)[C@@H]1CCCN1C(=O)[C@@H](NC(=O)[C@@H](NC(=O)[C@H](CCC(=O)O)NC(=O)[C@H](CCC(=O)O)NC(C)=O)C(C)C)C1CCCCC1)C(=O)C(=O)NCC(=O)O` [Ac-EEV-G(Chx)-P-nV-(CO)-G-OH] (Ac-EEV[Chg]P[X1]G-OH), 1 to 100 nM.
`CCCC(NC(=O)[C@@H]1C[C@@H]2CCCC[C@@H]2N1C(=O)[C@@H](NC(=O)[C@@H](NC(=O)[C@H](CCC(=O)OC(C)(C)C)NC(=O)[C@H](CCC(=O)OC(C)(C)C)NC(C)=O)C(C)C)C1CCCCC1)C(=O)C(=O)NCC(=O)O` (stereo partly drawn) [Compound 59] (Ac-E(OtBu)E(OtBu)V[Chg][Oic][X3]G-OH): the Ki lay in the range of 101 to 999 nM.
To `CCC[C@H](NC(=O)[C@@H]1C[C@@H](Cc2ccccc2)CN1C(=O)[C@@H](NC(=O)[C@@H](NC(=O)[C@H](CCC(=O)O)NC(=O)[C@H](CCC(=O)O)NC(C)=O)C(C)C)C(C)C)C(=O)C(=O)NCC(=O)O` [Ac-EEVV-P(4t-Bn)-nV-(CO)-G-OH] (Ac-EEVV[Pro(4R-Bn)][X1]G-OH) belongs 1 to 100 nM.
